Measurements as given in patent publication US20240261236A1, “METHODS OF USING NMDA RECEPTOR ANTAGONISTS” (Seelos Therapeutics, Inc., priority 2021, published 2024).

Experiments:
[1] = test system: adults with major depressive disorder (MDD) who are at imminent risk of suicide; test: MOAA/S sedation, Phase 2 Part 1; conditions: subsequent dosing days; except 1 subject with 4 units at the 6-hour time-point on Day 4
[2] = test system: adults with major depressive disorder (MDD) who are at imminent risk of suicide; test: CADSS dissociation, Phase 2 Part 1; conditions: if observed, noted at 40 minutes post dose on Day 1

## CNC1(c2ccccc2Cl)CCCCC1=O (racemic) [intranasal racemic ketamine, 1:1 mixture of the two enantiomers of ketamine: (R)-2-(2-chlorophenyl)-2-(methylamino)cyclohexanone and (S)-2-(2-chlorophenyl)-2-(methylamino)cyclohexanone]
[1]
  MOAA/S score (no scores below): ≥ 5 units
[2]
  time to resolution of dissociation: less than 2 hours
